Experimental data: PubChem BioAssay (Tox21)
The inconclusive results got no clear call from the source; some entries with a clear call stand among them for comparison. Potencies of inconclusive entries are doubtful fits and often do not repeat. The source made the active and inactive calls. The call rests on the fitted dose curve; in most records, active means well fitted curve in the direction sought with a large enough effect in the repeat runs; inconclusive means weak or mixed curves; inactive means no such curve, though single readings can be large; an effect the other way counts as inactive or inconclusive.

Target: Androgen receptor (Homo sapiens) (UniProt P10275)
Assay: qHTS assay to identify small molecule antagonists of the androgen receptor (AR) signaling pathway using the MDA cell line (AID 743042; further: nearly all actives have a fitted effect of over 55% in size)
Settings: MDA-kb2 AR-luc, MMTV luciferase, R1881 antagonist, 16 h; activity change, negative = inhibition: at 70.3 µM (top of the series)
Procedure, shortened: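 Antagonist mode: compounds plus R1881 agonist added to MDA-kb2 AR-luc cells, incubated 16 h at 37C. Luciferase reporter luminescence quantified, with multiplexed CellTiter-Fluor readout for cell viability.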
On the % scale 0 is the no-effect control and ±100 the full control effect; potency means the concentration at half of the fitted maximal effect; tags describe the fitted curve by direction and shape.

UniProt P10275, sequence (P10275 whole entry, looked up): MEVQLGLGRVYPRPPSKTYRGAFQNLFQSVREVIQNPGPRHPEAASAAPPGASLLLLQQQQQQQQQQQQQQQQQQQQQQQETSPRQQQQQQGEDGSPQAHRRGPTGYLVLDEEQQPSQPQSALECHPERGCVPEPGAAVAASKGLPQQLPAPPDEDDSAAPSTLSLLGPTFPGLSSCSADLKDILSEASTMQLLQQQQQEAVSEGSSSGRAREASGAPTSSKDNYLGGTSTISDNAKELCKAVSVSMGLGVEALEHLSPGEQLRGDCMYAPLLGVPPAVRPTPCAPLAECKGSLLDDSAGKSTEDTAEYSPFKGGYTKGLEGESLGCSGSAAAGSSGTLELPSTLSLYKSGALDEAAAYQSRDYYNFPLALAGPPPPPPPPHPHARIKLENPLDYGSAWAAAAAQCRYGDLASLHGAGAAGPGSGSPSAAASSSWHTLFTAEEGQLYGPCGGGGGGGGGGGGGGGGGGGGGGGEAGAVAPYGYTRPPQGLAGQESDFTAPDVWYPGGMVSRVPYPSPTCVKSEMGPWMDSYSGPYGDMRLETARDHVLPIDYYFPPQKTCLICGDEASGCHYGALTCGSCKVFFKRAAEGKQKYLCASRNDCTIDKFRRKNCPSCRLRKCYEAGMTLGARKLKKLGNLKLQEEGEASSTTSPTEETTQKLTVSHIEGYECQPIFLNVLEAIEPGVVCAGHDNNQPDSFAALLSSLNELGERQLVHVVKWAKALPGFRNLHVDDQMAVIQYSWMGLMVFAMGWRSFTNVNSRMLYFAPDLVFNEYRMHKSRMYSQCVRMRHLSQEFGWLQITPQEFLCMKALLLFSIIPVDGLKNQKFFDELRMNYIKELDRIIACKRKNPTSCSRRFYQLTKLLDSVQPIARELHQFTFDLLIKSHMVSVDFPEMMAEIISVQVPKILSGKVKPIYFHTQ

Structure (SMILES) | Potency | activity change, negative = inhibition
Clc1cccc(C(c2ccc3nc[nH]c3c2)n2ccnc2)c1 (configuration not stated) | inconclusive: 29.8 µM [inhibitor, partial curve, poor fit] | 
O=S(=O)(O)c1cccc(S(=O)(=O)O)c1 |  | inactive: -6.43%
O=C(O)c1cc(C(=O)O)c(C(=O)O)cc1C(=O)O |  | inactive: 1.44%
CCN(CC)CCOC(=O)C1(c2ccccc2)CCCC1 |  | inactive: 13.4%
CC(=O)OCC(=O)[C@H]1CC[C@H]2[C@@H]3CCC4=CC(=O)CC[C@]4(C)[C@H]3CC[C@]12C |  | inactive: 33.1%

Tested on: not listed separately
Assay: qHTS assay to identify small molecule antagonists of the thyroid receptor (TR) signaling pathway - cell viability counter screen (AID 743064); further: nearly all actives have a fitted effect of over 50% in size
Settings: GH3.TRE-Luc viability, CellTiter-Fluor, 24 h; activity change, negative = cytotoxic: at 70.3 µM (top of the series) unless noted
Procedure, shortened: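 Plate GH3.TRE-Luc cells; incubate 4 h at 37 °C; add compound, then T3 to 1 nM final; incubate 23.5 h; add CellTiter-Fluor; incubate 30 min at 37 °C, 5% CO2; read fluorescence.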

Structure (SMILES) | Potency | activity change, negative = cytotoxic
Cc1ccc(C)c(OCCCC(C)(C)C(=O)O)c1 | inconclusive: 2.75 µM [rising, single point] | 
CC(C)CC(=O)CC(C)CC(C)C (configuration not stated) | inconclusive: 2.73 µM [rising, single point] | 
CCOC(=O)C(C)Oc1ccc(Oc2nc3ccc(Cl)cc3o2)cc1 (configuration not stated) | inconclusive: 34.4 µM [rising, single point] | 
CCN(Cc1ccccc1)c1ccccc1 | inconclusive: 76 µM [rising, partial curve, poor fit] | 
C#CCN[C@@H]1CCc2ccccc21 | inconclusive: 11.9 µM [rising, partial curve, poor fit] | 
O=C(Nc1ccccc1)c1cc([N+](=O)[O-])ccc1Cl | inconclusive: 68.6 µM [cytotoxic, single point] | 
CN(C)Cc1cc(CN(C)C)c(O)c(CN(C)C)c1 | inconclusive: 68.6 µM [rising, single point] | 
Clc1cccc(C(c2ccc3nc[nH]c3c2)n2ccnc2)c1 (configuration not stated) |  | inactive: 2.26%
CCCCCCCCCCCCCCCCOS(=O)(=O)O | inconclusive: 33.5 µM [cytotoxic, single point] | 
O=C1CCCCCCCCCCCC(=O)OCCO1 | inconclusive: 61.1 µM [cytotoxic, single point] | 
C[N+](C)(C)CCOC(N)=O |  | inactive: 15.9%
CC(C)C1OCCN1CCOC(=O)NCCCCCCNC(=O)OCCN1CCOC1C(C)C (configuration not stated) |  | inactive: 0.119%
O=[N+]([O-])c1cc[n+]([O-])cc1 | inconclusive: 61.1 µM [cytotoxic] | 
O=C(O)c1cc(C(=O)O)c(C(=O)O)cc1C(=O)O |  | inactive: -1.34%
O=C(O)c1ccc(O)c(O)c1 | inconclusive: 24.3 µM [rising, partial curve] | 
CC(C)c1ccc2c(C(C)C)cc(C(C)C)c(S(=O)(=O)O)c2c1 | inconclusive: 70.9 µM [cytotoxic, single point] | 
COc1cc(CCC(C)=O)ccc1O |  | inactive: 9.32%
